Test results reported in PMC4242493.
This is one part of the list. The list includes weakly bound sequences.

These sequences were tested against MaxL homodimer (UniProt P61244) (assay: universal protein-binding microarray (PBM)). Settings: PBS-based mixture, 10 nM His-tagged protein dimer, 2% milk, 200 ng/uL BSA, 50 ng/uL salmon testes DNA, 0.02% TX-100; detection with Alexa 488 anti-His …; high values mean tight binding; most listed sequences are background and not binding sites; double strand, one strand shown.
Chain of UniProt P61244 (P61244 whole entry): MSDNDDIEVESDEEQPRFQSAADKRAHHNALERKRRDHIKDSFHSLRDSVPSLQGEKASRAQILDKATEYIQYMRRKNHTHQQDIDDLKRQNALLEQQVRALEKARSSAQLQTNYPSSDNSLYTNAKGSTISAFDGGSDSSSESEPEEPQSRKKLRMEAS

Sequence	binding signal (normalized occupancy)
ACATCGTC	0.0753
ACTCAGTA	0.074
AAAAGCTT	0.0699
CACTTGCA	0.0726
ACTAGTAT	0.0807
GACTCTCC	0.0731
CGAAACTC	0.0685
AACACTAA	0.0746
GAGGTGCA	0.0745
ATGTCAAG	0.0844
AATTCACT	0.0705
ACGCCCTG	0.0733
CCACTGAC	0.0696
AGCTTGTA	0.0717
CTGATAGC	0.0726
AGCCCGAA	0.0662
ACAGTTTC	0.0713
ATAATTTA	0.0836
ACCTTTAC	0.0742
CAGACACG	0.0847
GATGATTA	0.0816
CGTACCCC	0.0786

Sequence	binding signal (normalized occupancy)
AGTATGTC	0.0803
ACCAGTAT	0.0747
ACGTTTCC	0.0762
GCTAAGTA	0.0772
ACGTGACC	0.103
AAGTCAAC	0.0755
AGAGCGTC	0.0678
ATCTCCAG	0.0696
AGGTAAGC	0.0738
ACTTTCTA	0.0745
AGGGCTCC	0.0665
AAACCAAT	0.0735
AACTCTCT	0.0731
ATTTTTTA	0.0778
CGGAACTA	0.0675
AGTTTGGC	0.0716
TCCAGTAA	0.07
GCGTTCCA	0.0746
AGATCGAT	0.0761
CAAGTACG	0.0752
AATGGAGG	0.0754
CATAAATC	0.0857

Sequence	binding signal (normalized occupancy)
TGGTTAAA	0.0737
AATGCTCT	0.0747
ACCGCAGA	0.0692
GGTACATA	0.0815
CATTGCAG	0.0775
AGAGCAAA	0.0684
ACTGACCA	0.0743
ATATCGGG	0.0805
CGGGACAA	0.074
CTCGTGTC	0.0959
CGAGAAAC	0.0718
CGCTCCAG	0.0653
TGCACGCA	0.0894
ACATGTAA	0.0953
GTTTTCTA	0.072
CCATATCG	0.083
GACATAAA	0.0815
TTCGGAAA	0.0698
ATGTTACC	0.0845
ACTTACGG	0.0731
GACGGAGA	0.0651
AAACAATT	0.0739

Sequence	binding signal (normalized occupancy)
CTGGATAC	0.0737
ACTGCGAA	0.0662
CGCGTTGA	0.08
CCCGTCCA	0.0734
ATCCACTG	0.0816
ACGGATAG	0.0781
AGGGGAAG	0.0795
GGAAGCCA	0.069
CTATCGGA	0.0709
AACGTGGT	0.125
CGTCACTA	0.076
AGGTCCTA	0.0693
ACAGGCCG	0.0686
CAATTATA	0.0772
CCCTTGTA	0.0775
TGCAACAA	0.0748
CAGCTAAG	0.0679
AAAGTATA	0.0844
ACTGTACG	0.0741
GGAGCAAA	0.0728
